{"source": "PubChem BioAssay AID1346428", "about": "(National Center for Advancing Translational Sciences (NCATS), 2018)", "note": "Among all 48,000 compounds or so, about 1,200 (2.5%) were called active. Not shown: some 2% with an inconclusive outcome.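 How the source made its calls: active means activation of at least 60% and not above a set upper limit (about 1 call in 100 departs from these limits); inconclusive means activation of 40% to 60%, or above that upper limit; inactive means activation under 40%.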 This is one part of the list.", "data": [{"biological_target": "Probable G-protein coupled receptor 32 (Homo sapiens) (UniProt O75388)", "sequence (O75388 whole entry, looked up)": "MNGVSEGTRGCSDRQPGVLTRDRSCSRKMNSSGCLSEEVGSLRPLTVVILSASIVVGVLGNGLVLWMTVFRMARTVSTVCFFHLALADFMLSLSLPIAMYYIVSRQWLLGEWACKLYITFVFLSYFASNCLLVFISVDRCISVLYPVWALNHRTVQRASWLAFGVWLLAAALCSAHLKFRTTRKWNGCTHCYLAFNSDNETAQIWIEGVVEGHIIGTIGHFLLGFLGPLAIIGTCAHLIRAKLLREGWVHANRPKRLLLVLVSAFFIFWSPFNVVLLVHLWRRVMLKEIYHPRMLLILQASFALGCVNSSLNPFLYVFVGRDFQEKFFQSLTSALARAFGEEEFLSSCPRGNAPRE", "assay": "qHTS for Agonists of Human Resolvin D1 Receptor DRV1; further: 0% is about no effect", "conditions": "CHO-K1 GPR32 beta-arrestin PathHunter luminescence, 90 min; at 76.9 µM; stronger effect = higher value; zero percent set by DMSO-only wells", "how_it_was_run": "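Step 1: seed CHO-K1 GPR32 beta-arrestin cells, 2,500/well, overnight at 37 °C. Step 2: add compounds, 90 min at 37 °C. Step 3: detection reagent, 1 h ambient, then luminescence.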", "values": [{"molecule": "CCOc1ccc(C(=O)Nc2ccc3nc(SCC(=O)N4CCOCC4)sc3c2)cc1", "activation": "inactive: 4.47%"}, {"molecule": "CCCSCCCNC(=O)CN1C(=O)COc2ccc(S(=O)(=O)N3CCCCCC3)cc21", "activation": "inactive: -14%"}, {"molecule": "O=C(NCCc1ccccc1)c1cnc2sc(N3CCOCC3)nn2c1=O", "activation": "inactive: 1.02%"}, {"molecule": "CCOC(=O)c1c(C)oc2nc(C)nc(NCCc3ccc(S(N)(=O)=O)cc3)c12", "activation": "inactive: 8.52%"}, {"molecule": "CCOc1ccccc1Nc1ccc2cc(S(=O)(=O)N3CCCCC3)ccc2n1", "activation": "inactive: -26.6%"}, {"molecule": "COc1ccc(CCC(=O)NCc2ccc3c(c2)CCN3C(=O)c2cccc(C)c2)cc1", "activation": "inactive: 11.4%"}, {"molecule": "CCCOc1ccc(CNC(=O)C2CCN(c3nn4c(=O)cc(C)nc4s3)CC2)cc1", "activation": "inactive: -47.3%"}, {"molecule": "O=C(Nc1ccc(F)cc1F)C1CCCN1S(=O)(=O)c1cccc2nsnc12", "note": "(stereo not drawn)", "activation": "inactive: -4.68%"}, {"molecule": "Cc1cc(NC(=O)CN(c2cccc(C)c2C)S(=O)(=O)c2ccccc2)ccc1Br", "activation": "inactive: -1.67%"}, {"molecule": "CCOc1ccc(C(=O)c2cn(CC(=O)Nc3ccc(C)c(C)c3)c3ccc(OCC)cc3c2=O)cc1", "activation": "inactive: 10.7%"}, {"molecule": "CCOC(=O)[C@H](CCc1ccccc1)N[C@@H](C)C(=O)N1Cc2ccccc2C[C@H]1C(=O)O", "activation": "inactive: -67.6%"}, {"molecule": "CCOC(=O)CSc1ncnc2c1c(-c1ccccc1)cn2-c1ccc(OC)cc1", "activation": "inactive: 3.59%"}, {"molecule": "CCS(=O)(=O)c1nc(S(=O)(=O)c2ccc(C)cc2)c(NCc2ccccc2Cl)s1", "activation": "inactive: -25.5%"}, {"molecule": "COc1ccccc1NC(=O)C1CCN(c2ncnc3c2nc2n3CCCCC2)CC1", "activation": "inactive: -2.74%"}, {"molecule": "COc1cc2c(cc1OC)C(COc1ccc(C(C)C)cc1)N(C(=O)COc1ccccc1)CC2", "note": "(stereo not drawn)", "activation": "inactive: -15.6%"}, {"molecule": "COc1ccc(N2CC(NC(=O)c3ccc(S(=O)(=O)N4CCOCC4)cc3)CC2=O)cc1", "note": "(stereo not drawn)", "activation": "inactive: -2.62%"}, {"molecule": "COc1ccc(OCC(=O)N2CCN(C(=O)c3ccc(OC)cc3)CC2)cc1", "activation": "inactive: 13%"}, {"molecule": "COc1ccc(NC(=O)CC2C(=O)N(c3ccc(C)cc3)C(=O)N2C2CCCC2)cc1", "note": "(stereo not drawn)", "activation": "inactive: -25.2%"}, {"molecule": "CCOc1ccc(Nc2nc(Nc3ccc(OCC)cc3)nc(N3CCOCC3)n2)cc1", "activation": "inactive: -11.2%"}, {"molecule": "COc1ccc(CCNC(=O)CCCn2c(=O)c3cccn3c3ccc(F)cc32)cc1OC", "activation": "inactive: -24.3%"}, {"molecule": "CC(NC(=O)c1cc2ccccn2n1)c1ccccc1", "note": "(stereo not drawn)", "activation": "inactive: -1.81%"}, {"molecule": "Cc1ccc(C)c(CN2C(=O)C(O)(c3c[nH]c4ccccc34)c3ccccc32)c1", "note": "(stereo not drawn)", "activation": "active: 84.3%"}, {"molecule": "COC(=O)CN1C(=O)C(C)(C)c2cc(S(=O)(=O)Nc3ccc(C(C)C)cc3)ccc21", "activation": "inactive: 30%"}]}]}
